Molecular target: T1, recombinant soluble integrin αvβ3 (UniProt P06756 31-992; P05106 27-718)
T1 construct: also called soluble αvβ3; purified soluble αvβ3
Assay: SPR, soluble αvβ3 immobilized on a CM5 chip, IGF1 0.125-8 µM in HBS-P with 1 mM Mn2+, 1:1 binding with drifting baseline

T1 sequence (P06756 31-992, chain 1 of 2): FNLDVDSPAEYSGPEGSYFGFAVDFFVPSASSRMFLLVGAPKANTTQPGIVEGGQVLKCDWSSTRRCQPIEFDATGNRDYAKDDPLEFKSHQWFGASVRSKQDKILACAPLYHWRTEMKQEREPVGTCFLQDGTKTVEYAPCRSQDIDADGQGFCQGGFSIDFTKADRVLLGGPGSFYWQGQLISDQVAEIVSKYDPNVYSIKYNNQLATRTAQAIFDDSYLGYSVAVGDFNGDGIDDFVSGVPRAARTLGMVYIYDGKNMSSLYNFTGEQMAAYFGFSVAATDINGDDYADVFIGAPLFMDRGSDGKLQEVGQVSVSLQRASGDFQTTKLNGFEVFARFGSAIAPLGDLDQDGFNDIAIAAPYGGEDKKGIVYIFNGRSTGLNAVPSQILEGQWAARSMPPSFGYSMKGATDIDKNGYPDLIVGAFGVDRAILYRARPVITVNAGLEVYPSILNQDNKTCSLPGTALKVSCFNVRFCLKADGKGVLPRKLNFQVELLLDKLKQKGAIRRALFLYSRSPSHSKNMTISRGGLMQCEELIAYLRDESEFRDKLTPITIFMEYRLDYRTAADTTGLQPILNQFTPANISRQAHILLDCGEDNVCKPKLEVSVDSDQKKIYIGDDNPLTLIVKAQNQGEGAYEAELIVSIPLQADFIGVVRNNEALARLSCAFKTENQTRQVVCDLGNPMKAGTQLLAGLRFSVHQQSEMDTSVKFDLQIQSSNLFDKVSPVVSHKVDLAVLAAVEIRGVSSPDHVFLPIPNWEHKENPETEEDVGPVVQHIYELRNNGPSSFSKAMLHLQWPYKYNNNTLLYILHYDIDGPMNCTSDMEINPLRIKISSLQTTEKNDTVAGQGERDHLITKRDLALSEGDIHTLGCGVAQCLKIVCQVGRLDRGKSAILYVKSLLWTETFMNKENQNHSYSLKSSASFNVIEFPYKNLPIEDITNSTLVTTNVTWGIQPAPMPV
T1 sequence (P05106 27-718, chain 2 of 2, further chain): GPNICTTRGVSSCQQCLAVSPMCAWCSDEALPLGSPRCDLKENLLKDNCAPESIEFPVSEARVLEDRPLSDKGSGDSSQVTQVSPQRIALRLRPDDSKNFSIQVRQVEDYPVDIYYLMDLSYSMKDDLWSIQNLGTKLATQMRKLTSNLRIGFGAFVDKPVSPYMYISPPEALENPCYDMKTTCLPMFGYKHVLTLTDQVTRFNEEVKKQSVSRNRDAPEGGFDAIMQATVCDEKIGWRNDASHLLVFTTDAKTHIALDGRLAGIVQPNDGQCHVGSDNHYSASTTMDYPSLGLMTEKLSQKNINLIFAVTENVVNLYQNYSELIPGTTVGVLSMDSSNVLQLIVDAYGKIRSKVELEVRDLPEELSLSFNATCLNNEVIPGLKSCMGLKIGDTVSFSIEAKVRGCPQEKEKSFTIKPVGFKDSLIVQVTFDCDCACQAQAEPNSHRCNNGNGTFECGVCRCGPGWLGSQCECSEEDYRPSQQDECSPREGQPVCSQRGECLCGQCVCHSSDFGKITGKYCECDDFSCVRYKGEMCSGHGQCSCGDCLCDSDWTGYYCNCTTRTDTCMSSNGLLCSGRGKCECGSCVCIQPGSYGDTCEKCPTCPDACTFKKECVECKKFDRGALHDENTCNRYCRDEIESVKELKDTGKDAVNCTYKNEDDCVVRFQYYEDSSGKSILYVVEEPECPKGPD

Kd: 506 nM | koff: 0.00169 s⁻¹ | kon: 3330 M⁻¹ s⁻¹
B1: wild type IGF-1 with a 6His-tag at the C-terminus (ligand)
chain: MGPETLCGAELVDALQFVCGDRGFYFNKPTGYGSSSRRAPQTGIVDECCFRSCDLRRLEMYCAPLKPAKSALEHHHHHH
modifications: biotinylated when used as the labelled ligand in the IGF1R competition assay (site not stated)
notes: also called wt IGF1; WT IGF-1
